Laboratory results from PubChem BioAssay (NCI).
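Protocol summary: plate cells (96-well), add compound at 5 concentrations, incubate 48 h, interpolate endpoints linearly. TGI: total growth inhibition.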

System: NCI-H322M lung
Test: NCI tumour cell line growth inhibition, 48 h

Work on `COC/C=C\[C@@]1(O)CCCC[C@@H]1CC(OC)OC` yielded a TGI greater than 100 µM.
Molecule `CCOC(=O)C(C[Si](C)(C)C)P(=O)(OCC)OCC` (configuration not stated) has a TGI greater than 100 µM.
